Data as given in the BET-seq Pho4 binding data (Le et al. 2018).
Some of the results follow. Values were computed here from the reads of four pooled replicates and scatter widely.

Target: T1, Pho4 (S. cerevisiae) (UniProt P07270)
T1 sequence: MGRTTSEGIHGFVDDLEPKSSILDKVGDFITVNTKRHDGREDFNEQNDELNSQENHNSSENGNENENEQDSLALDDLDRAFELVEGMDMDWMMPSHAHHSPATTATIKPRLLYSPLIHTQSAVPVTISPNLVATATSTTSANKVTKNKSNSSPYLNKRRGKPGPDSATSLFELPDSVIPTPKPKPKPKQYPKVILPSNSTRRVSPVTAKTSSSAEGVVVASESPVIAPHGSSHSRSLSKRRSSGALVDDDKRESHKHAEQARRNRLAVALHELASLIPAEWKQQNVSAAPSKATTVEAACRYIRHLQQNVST
Assay: relative binding free energy (BET-seq); higher = weaker binding
Settings: reference: library average

Sequence	relative binding free energy
GAGATCACGTGTAGGA	0.17 kcal/mol
AGTTACACGTGGCAGT	0.11 kcal/mol
TAATTCACGTGTAGAG	0.11 kcal/mol
TGGATCACGTGCGGTC	0.28 kcal/mol
TGAATCACGTGAGATA	0.58 kcal/mol
TTAGACACGTGGGGTT	-0.15 kcal/mol
CGGGACACGTGGGTAA	-0.08 kcal/mol
TATTTCACGTGGATGG	0.26 kcal/mol
TTTTACACGTGCTATT	0.06 kcal/mol
TACGTCACGTGGGAGG	-0.04 kcal/mol
GCGTGCACGTGAATGG	0.17 kcal/mol
TCTGGCACGTGATGAT	-0.12 kcal/mol
TTCGTCACGTGGGGGT	0.04 kcal/mol
GAATGCACGTGATTTT	0.2 kcal/mol
TTTCGCACGTGGGTAG	-0.23 kcal/mol
AAATTCACGTGAAGGA	0.42 kcal/mol
TTATGCACGTGATGCG	0.03 kcal/mol
GTGTCCACGTGCGAGG	0.08 kcal/mol
AGCGTCACGTGGGGCC	0.06 kcal/mol
ATTTGCACGTGTTATC	0.13 kcal/mol
TTTCTCACGTGTTTCG	0.12 kcal/mol
TTGGGCACGTGGATTG	0.05 kcal/mol
CAGGTCACGTGGGAGC	0.08 kcal/mol
ATGGGCACGTGGCAGA	-0.26 kcal/mol
TTTTACACGTGTTGAC	0.06 kcal/mol

Sequence	relative binding free energy
TAGAACACGTGTGAGG	0.1 kcal/mol
AATTGCACGTGTGCAT	-0.04 kcal/mol
GAAGGCACGTGGAATT	0.18 kcal/mol
GGGACCACGTGAGGTG	0.23 kcal/mol
ATGGACACGTGGAGAA	0.08 kcal/mol
TTGAGCACGTGATGTT	0.01 kcal/mol
TTTATCACGTGTTGGC	0.13 kcal/mol
TATTACACGTGATGTG	0.1 kcal/mol
ATGGACACGTGTTGAG	-0.04 kcal/mol
GTAAGCACGTGTGTTT	0.06 kcal/mol
TGGGGCACGTGGCTTT	-0.15 kcal/mol
CTAATCACGTGTATGT	0.1 kcal/mol
AAGTTCACGTGGGCGC	0.28 kcal/mol
TTTTGCACGTGTTCGC	-0.02 kcal/mol
TGTTCCACGTGGAGGA	-0.01 kcal/mol
ATTTGCACGTGGTCGG	-0.01 kcal/mol
TAGATCACGTGAGTTT	0.23 kcal/mol
GTCTGCACGTGGTGCT	0.02 kcal/mol
GACAACACGTGGGGTG	-0.06 kcal/mol
TATTTCACGTGTCTAG	0.16 kcal/mol
ATTATCACGTGGGTAA	0 kcal/mol
TTTTGCACGTGGGCAA	-0.23 kcal/mol
CGTGTCACGTGGAGTT	0.15 kcal/mol
TTGAACACGTGGGTTT	-0.1 kcal/mol
GTATCCACGTGGTTAG	0.13 kcal/mol

Sequence	relative binding free energy
CGTGTCACGTGTACGG	-0.05 kcal/mol
TGGATCACGTGTTGCG	0.22 kcal/mol
TTTTTCACGTGAGTGA	0.43 kcal/mol
ACTTGCACGTGTGAGG	0.03 kcal/mol
CGGCTCACGTGGCGTG	0.11 kcal/mol
AAGGACACGTGGGTCT	-0.19 kcal/mol
GGGGCCACGTGGAGTA	-0.05 kcal/mol
TTAATCACGTGGTAAT	0.12 kcal/mol
ATTAACACGTGGTAGG	-0.04 kcal/mol
TAGGTCACGTGGATGG	0.13 kcal/mol
GGTCTCACGTGAGGCG	0.21 kcal/mol
CAAGGCACGTGTTAGT	-0.16 kcal/mol
GTAATCACGTGTTTGC	0.18 kcal/mol
TGGTTCACGTGAGAGA	0.31 kcal/mol
GCTAGCACGTGGGATG	-0.14 kcal/mol
CGTTGCACGTGTTGCA	-0.03 kcal/mol
GGTAGCACGTGGTTTA	-0.12 kcal/mol
GGTTGCACGTGGACGT	0.02 kcal/mol
GTGTTCACGTGATGTG	0.4 kcal/mol
GGGGGCACGTGGATAA	-0.13 kcal/mol
CAGTGCACGTGATTAG	0.15 kcal/mol
TGAATCACGTGTTGGA	0.06 kcal/mol
AAACTCACGTGTGGTT	0.29 kcal/mol
AGTGTCACGTGTTGAG	0.15 kcal/mol
TGTGACACGTGCTGGT	-0.04 kcal/mol

Sequence	relative binding free energy
GGTGTCACGTGGCACG	-0.03 kcal/mol
TAACTCACGTGGATGG	0.25 kcal/mol
AGAATCACGTGTTGTG	0.12 kcal/mol
GACTGCACGTGTGTTT	0.1 kcal/mol
TTAATCACGTGTTGCG	0.12 kcal/mol
TGTTACACGTGGCTTA	-0.1 kcal/mol
AGGCTCACGTGATGAT	0.38 kcal/mol
TGTATCACGTGAGTGG	0.31 kcal/mol
TCATGCACGTGGTGGA	0.04 kcal/mol
CGGGACACGTGGGCAG	-0.1 kcal/mol
GTTTACACGTGATTAG	0.26 kcal/mol
CTGTACACGTGCTGGA	0.16 kcal/mol
TGGTCCACGTGTGGTA	0.09 kcal/mol
TGTCGCACGTGCGATT	0.08 kcal/mol
TATCTCACGTGGGTAA	0.14 kcal/mol
GTCGACACGTGAGTGG	0.4 kcal/mol
GGATGCACGTGGGCGC	-0.12 kcal/mol
TTGGTCACGTGCACGT	-0.05 kcal/mol
ATCTTCACGTGACGGT	0.31 kcal/mol
GTAAGCACGTGGATTG	0.11 kcal/mol
CTGAGCACGTGCGTGT	-0.1 kcal/mol
TAAATCACGTGTAGAG	0.21 kcal/mol
TGTCACACGTGGGTGA	-0.15 kcal/mol
TAAAACACGTGATTGT	0.14 kcal/mol
TTTGACACGTGCGCGT	-0.19 kcal/mol

Sequence	relative binding free energy
GCTGGCACGTGGCGGG	-0.09 kcal/mol
GTGTTCACGTGATATG	0.31 kcal/mol
CGGGGCACGTGATGGG	0 kcal/mol
GTGCACACGTGATAGG	0.23 kcal/mol
ACGGACACGTGTGTGT	-0.01 kcal/mol
GTATACACGTGTATGT	-0.05 kcal/mol
GTACGCACGTGGTGGA	-0.25 kcal/mol
GATGTCACGTGGGCTA	0 kcal/mol
GGGTTCACGTGTGATT	0.45 kcal/mol
GCTTTCACGTGATAGG	0.45 kcal/mol
AAGAGCACGTGGGTGG	-0.23 kcal/mol
ATCGTCACGTGGTGAG	0.12 kcal/mol
TTAAACACGTGTGATT	-0.04 kcal/mol
ACGGTCACGTGACGGT	0.3 kcal/mol
GGATGCACGTGGGTTG	-0.15 kcal/mol
TCGGTCACGTGTCTGG	0.06 kcal/mol
TGTTCCACGTGTACGT	0.01 kcal/mol
AGATGCACGTGTTGGG	-0.03 kcal/mol
GCTGTCACGTGAGGTT	0.49 kcal/mol
CTAGTCACGTGATAGG	0.16 kcal/mol
CGGTACACGTGAGGGA	0.14 kcal/mol
GCGATCACGTGTGATT	0.42 kcal/mol
AGCGTCACGTGAGATG	0.17 kcal/mol
AGAGCCACGTGTAAGG	0.18 kcal/mol
CCTGGCACGTGAGTGG	0.18 kcal/mol

Sequence	relative binding free energy
TGTGGCACGTGTATAG	0.05 kcal/mol
AGGAACACGTGCGTTG	0 kcal/mol
ATTTTCACGTGGGAGA	0.26 kcal/mol
AATGGCACGTGATAAG	-0.09 kcal/mol
CTGCGCACGTGGTGGT	-0.25 kcal/mol
GAGTGCACGTGGCTGA	-0.01 kcal/mol
GTTGTCACGTGGCTAT	-0.04 kcal/mol
TGGTTCACGTGAGCTG	0.27 kcal/mol
TAAGTCACGTGATGGG	0.39 kcal/mol
TGCGTCACGTGAGGTG	0.2 kcal/mol
GGTGTCACGTGAGCGC	0.21 kcal/mol
TCCGGCACGTGATTGT	0.09 kcal/mol
CTGGGCACGTGGATGC	-0.21 kcal/mol
GTACTCACGTGGGTAA	0.23 kcal/mol
TACGTCACGTGAATTT	0.29 kcal/mol
CGAATCACGTGGTGGT	0.22 kcal/mol
ATATGCACGTGTTCAT	-0.08 kcal/mol
CTTTACACGTGGATTG	0.07 kcal/mol
TGCGTCACGTGGCAGT	0.14 kcal/mol
ATGAACACGTGTGGGG	0.11 kcal/mol
TGGAACACGTGGTGAA	0.03 kcal/mol
